Data reported in PMC5325423.
These are yes or no findings as the source states them, for the method shown. Binding seen in cells or lysates may run through a third protein. Some results given as binding are weak or reduced against the parent protein; the word gives no strength.

Molecular target: NF-κB p65, human (human (endogenous in Caco-2)), Q04206
Experiment: co-IP; Caco-2 cell lysates (50 mM HEPES pH 8.3, 420 mM KCl, 0.1% NP-40, 1 mM EDTA) immunoprecipitated with anti-CFTR, anti-β-catenin or anti-NF-κB p65 antibody and protein A/G beads, 4°C overnight; Western blot; IgG control
Settings: remark: other sources report otherwise

B1: β-catenin, human, P35222 1-781 (protein)
chain: MATQADLMELDMAMEPDRKAAVSHWQQQSYLDSGIHSGATTTAPSLSGKGNPEEEDVDTSQVLYEWEQGFSQSFTQEQVADIDGQYAMTRAQRVRAAMFPETLDEGMQIPSTQFDAAHPTNVQRLAEPSQMLKHAVVNLINYQDDAELATRAIPELTKLLNDEDQVVVNKAAVMVHQLSKKEASRHAIMRSPQMVSAIVRTMQNTNDVETARCTAGTLHNLSHHREGLLAIFKSGGIPALVKMLGSPVDSVLFYAITTLHNLLLHQEGAKMAVRLAGGLQKMVALLNKTNVKFLAITTDCLQILAYGNQESKLIILASGGPQALVNIMRTYTYEKLLWTTSRVLKVLSVCSSNKPAIVEAGGMQALGLHLTDPSQRLVQNCLWTLRNLSDAATKQEGMEGLLGTLVQLLGSDDINVVTCAAGILSNLTCNNYKNKMMVCQVGGIEALVRTVLRAGDREDITEPAICALRHLTSRHQEAEMAQNAVRLHYGLPVVVKLLHPPSHWPLIKATVGLIRNLALCPANHAPLREQGAIPRLVQLLVRAHQDTQRRTSMGGTQQQFVEGVRMEEIVEGCTGALHILARDVHNRIVIRGLNTIPLFVQLLYSPIENIQRVAAGVLCELAQDKEAAEAIEAEGATAPLTELLHSRNEGVATYAAAVLFRMSEDKPQDYKKRLSVELTSSLFRTEPMAWNETADLGLDIGAQGEPLGYRQDDPSYRSFHSGGYGQDALGMDPMMEHEMGGHHPGADYPVDGLPDLGHAQDLMDGLPPGDSNQLAWFDTDL
With B1 the binding was “binds”.
